According to the supplement of paper PMC3334620:
Over roughly 33,000 sequences, “E-score (-0.5 to 0.5)” has its median near -0.035; the highest 2% begin near 0.34. This is one part of the list.

Target: T1, Mot3 (UniProt P54785)
T1 sequence: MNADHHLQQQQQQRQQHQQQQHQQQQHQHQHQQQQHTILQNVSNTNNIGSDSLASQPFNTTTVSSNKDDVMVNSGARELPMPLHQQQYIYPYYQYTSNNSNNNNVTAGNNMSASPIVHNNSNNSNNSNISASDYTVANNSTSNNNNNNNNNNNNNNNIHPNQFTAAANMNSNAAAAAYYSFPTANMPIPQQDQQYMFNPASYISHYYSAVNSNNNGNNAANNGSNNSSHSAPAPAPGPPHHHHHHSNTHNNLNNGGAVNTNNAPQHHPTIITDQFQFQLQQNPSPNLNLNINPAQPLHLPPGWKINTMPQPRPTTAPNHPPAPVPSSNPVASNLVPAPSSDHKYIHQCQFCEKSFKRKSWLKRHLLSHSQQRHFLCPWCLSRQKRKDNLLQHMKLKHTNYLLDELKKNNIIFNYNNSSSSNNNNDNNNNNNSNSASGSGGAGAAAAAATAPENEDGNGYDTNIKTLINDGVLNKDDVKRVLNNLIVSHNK
Assay: PBM E-score (8-mer binding enrichment) (E-score (-0.5 to 0.5)); higher = stronger / more preferred TF binding; most listed sequences are background and not binding sites
Conditions: protein concentration: 200 nM; construct: GST-full length
In short: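 Using PURExpress in vitro transcription/translation, GST-tagged yeast transcription factors were made in full-length or DNA-binding-domain form. These were applied at about 100-200 nM to double-stranded universal all-10-mer Agilent arrays, and bound protein was detected with fluorescent anti-GST. Scans were normalised with masliner before the Universal PBM Analysis Suite assigned E-scores to ungapped eight-base words pooled with their reverse complements.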

Sequence	PBM E-score
CTCGTTAA	0.157
AATTCGGA	-0.188
GGTCTGGA	-0.313
ACGAGCTA	0.0171
GAAATCCC	-0.237
ATGTTAAG	0.37
TACTCATA	-0.0621
CCTAAAAC	0.167
ATCGCCAC	-0.158
AGGATTAC	0.256
CTTCCACA	-0.14
GCCATAAC	-0.231
AAGCGCAC	0.0359
CAGGCGCC	0.326
GGACACCA	-0.23
GAGCACTC	-0.0925
CTTGATAC	0.00505
GTAACCTA	0.261
GCTCCAAC	-0.0258
AACATCTC	0.0667
TGAAAGCA	0.117
CTGAGCCA	-0.259

Sequence	PBM E-score
ACGATCAG	-0.0275
GGCGTCAC	-0.219
GGGCCCTA	-0.193
AACGAAAC	0.0731
AAACTTTG	-0.0577
CTGTACAG	0.187
AGGATCCT	0.151
CTTTGGGA	-0.192
CGCCTCTA	-0.0742
CCGACAGA	-0.191
GCAACAAA	0.171
CGAAGCTA	-0.115
ATGCTTGC	-0.145
ACATTACG	0.271
CCCCACAA	-0.0534
GGCTAGAA	-0.0164
ACGCCCCT	0.0443
AGAGGCGC	-0.241
ACGACCAC	0.0698
AGAGTGAA	0.0663
AGCGGATA	-0.203
ATCGGGGA	0.0758

Sequence	PBM E-score
CGGCTCTC	-0.273
GAGCTCAA	-0.0104
CGGCGCCC	-0.187
ACCAAGAG	-0.0994
GGAATACA	0.327
ACGTTCCT	0.447
CTAACAAG	0.172
ACATATCG	0.0603
CGCACCTA	-0.125
TACCCGAA	-0.0457
CGTACTTC	-0.0947
ATAGGCAG	0.234
ACAACAGA	0.21
GAGGTTCA	-0.101
AACCCCCA	-0.161
CATTTCTC	-0.112
GCACTGCC	-0.0418
TGAGAAAA	0.0662
GCGGCTCA	-0.235
ATGTGGTG	0.127
CGTTATAG	0.185
CAGCGGCC	-0.25

Sequence	PBM E-score
AAACCGAT	-0.0323
CCACGTAG	-0.141
CGTTAAAG	0.195
CGTGCTTC	0.0855
TCGTGTCA	0.322
ACTGATTA	0.234
ACGTTAAA	0.3
AAACTATG	0.0201
CCCTGCGC	-0.256
GAGACTGC	-0.2
GCGCTTCA	-0.201
AAGGGGCG	-0.277
AAGACCAA	-0.0867
AGCCCAGA	-0.309
CCTAGCCG	-0.154
CTAAAAAC	0.0914
GCGCGTCC	-0.229
AACTTATC	-0.0591
ATCACCCC	-0.203
ATTGAGGG	-0.0877
